Data taken from PubChem BioAssay (NCATS).
“And” between values parts separate entries of the source, which are not always exact repeats. Identical values can stand only once. This list was built around the results that the source calls inconclusive (neither active nor inactive); the mix of calls is not that of the screen. For some of these results: Potencies of inconclusive entries are left out as doubtful fits. For some of these results: “Side channel” marks fits to a control or component signal instead of the main read-out. The source made the active and inactive calls. Unless noted, calls come from the whole dose curve; as a rule, active = well fitted curve in the direction sought with a large enough effect; inconclusive = small, poorly fitted or top-dose-only effect, or another doubt; inactive = no such curve, though single readings can be large; an effect the other way counts as inactive or inconclusive.

Legend:
[1] = Cell Viability - Hek293 (AID 427;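 active = compounds whose dose-response curve shows a full or clear partial loss of cell viability, called from curve shape rather than a numeric limit; inconclusive = weak partial curves or an effect only at the top dose; inactive = no dose-dependent loss of viability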;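 note: potency is the fitted concentration of half-maximal effect; cells exposed to compound for 40 hours at 37 °C before reading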); conditions: qHTS
Method in brief: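 AC50 values derive from Hill-modelled concentration-response of ATP-based luminescence, normalized between DMSO-only and 100 uM tamoxifen controls. Cells were exposed in complete culture medium for 40 hr at 37 °C before detection.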

[2] = target: Mitogen-activated protein kinase 10 (Mus musculus) (UniProt Q61831); assay: JNK3 AlphaScreen Assay (AID 530; active = well fitted curve in either direction with a large enough effect, not every such curve was filed as active; inconclusive = small, poorly fitted or top-dose-only effect, or another doubt;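 note: kinase came from lysate of stimulated human HepG2 cells; signal reports phosphorylation of biotinylated GST-cJun 1-79 at Ser73 with 10 µM ATP; potency is the fitted concentration of half-maximal effect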); conditions: JNK3 lysate, c-Jun phosphorylation; activity change, negative = inhibition: at 57.1 µM (top of the series)
Method in brief: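 Inhibitors reduce antibody binding to phosphorylated biotin-cJun, lowering AlphaScreen luminescence. Lysates from HepG2 cells pre-activated by IL-1beta plus TNF-alpha supplied JNK3; compounds were titrated.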

[3] = Cell Viability - N2a (AID 540); conditions: N2a mouse neuroblastoma cell viability; activity change, negative = cytotoxicity: at 92.2 µM (top of the series);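 note: plate controls were DMSO alone for no effect and tamoxifen control for full effect; nearly all actives have a fitted effect of over 45% in size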
Method in brief: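 Mouse neuroblastoma N2a cells, 1500/well, exposed to compounds 40 h at 37 °C in complete medium. Viability measured as cellular ATP by CellTiter-Glo luminescence; AC50 from Hill fits of concentration-response.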

[4] = target: Estrogen receptor (Homo sapiens) (UniProt P03372); assay: qHTS assay for small molecule antagonists of estrogen receptor alpha signaling (AID 588513; active = well fitted curve in the direction sought with a large enough effect in the signal ratio, with a control signal flat, not every such curve was filed as active; inconclusive = small, poorly fitted or top-dose-only effect, or effect the other way, or a change in a side signal; inactive = no such curve, though single readings can be large or run the other way; the % refers to the signal ratio; note: % is set by controls: 0 for no effect and ±100 for the full control effect); conditions: ER-alpha-UAS-bla HEK293, beta-lactamase ratio, antagonist mode; activity, negative = inhibition: at 76.9 µM (top of the series) unless noted
Chain of UniProt P03372 (P03372 whole entry, looked up): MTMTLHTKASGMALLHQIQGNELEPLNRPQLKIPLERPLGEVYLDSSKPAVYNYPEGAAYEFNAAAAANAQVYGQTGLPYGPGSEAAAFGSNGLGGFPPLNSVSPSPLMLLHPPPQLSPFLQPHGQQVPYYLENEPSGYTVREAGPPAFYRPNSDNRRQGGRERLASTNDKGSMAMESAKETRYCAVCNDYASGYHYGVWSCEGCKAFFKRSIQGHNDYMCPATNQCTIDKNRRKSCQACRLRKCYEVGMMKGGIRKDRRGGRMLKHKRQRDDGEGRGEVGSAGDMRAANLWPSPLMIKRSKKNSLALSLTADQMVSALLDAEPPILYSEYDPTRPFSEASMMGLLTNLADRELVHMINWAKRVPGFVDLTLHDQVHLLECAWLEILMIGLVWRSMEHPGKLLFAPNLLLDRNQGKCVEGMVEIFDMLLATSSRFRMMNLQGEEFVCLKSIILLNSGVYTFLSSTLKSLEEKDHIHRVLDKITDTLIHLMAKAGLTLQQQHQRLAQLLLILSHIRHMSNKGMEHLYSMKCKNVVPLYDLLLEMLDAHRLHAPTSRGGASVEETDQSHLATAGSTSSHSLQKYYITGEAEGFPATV
Method in brief: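 ER-alpha-UAS-bla GripTite HEK 293 cells in 2% charcoal/dextran-treated FBS medium; compounds titrated (1:2, duplicate), then stimulated with 0.5 nM 17-beta-estradiol for 18 h at 37C. CCF4 beta-lactamase fluorescence; Hill-fit IC50 and efficacy.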

[5] = target: Androgen receptor (Homo sapiens) (UniProt P10275); assay: qHTS assay for small molecule antagonists of androgen receptor signaling (AID 588516; active = well fitted curve in the direction sought with a large enough effect in the signal ratio, with a control signal flat, not every such curve was filed as active; inconclusive = small, poorly fitted or top-dose-only effect, or effect the other way, or a change in a side signal; inactive = no such curve, though single readings can be large or run the other way; the % refers to the signal ratio; note: % is set by controls: 0 for no effect and ±100 for the full control effect); conditions: AR-UAS-bla HEK293, beta-lactamase ratio, antagonist mode, 16 h; activity change, negative = inhibition: at 76.8 µM (top of the series)
Chain of UniProt P10275 (P10275 whole entry, looked up): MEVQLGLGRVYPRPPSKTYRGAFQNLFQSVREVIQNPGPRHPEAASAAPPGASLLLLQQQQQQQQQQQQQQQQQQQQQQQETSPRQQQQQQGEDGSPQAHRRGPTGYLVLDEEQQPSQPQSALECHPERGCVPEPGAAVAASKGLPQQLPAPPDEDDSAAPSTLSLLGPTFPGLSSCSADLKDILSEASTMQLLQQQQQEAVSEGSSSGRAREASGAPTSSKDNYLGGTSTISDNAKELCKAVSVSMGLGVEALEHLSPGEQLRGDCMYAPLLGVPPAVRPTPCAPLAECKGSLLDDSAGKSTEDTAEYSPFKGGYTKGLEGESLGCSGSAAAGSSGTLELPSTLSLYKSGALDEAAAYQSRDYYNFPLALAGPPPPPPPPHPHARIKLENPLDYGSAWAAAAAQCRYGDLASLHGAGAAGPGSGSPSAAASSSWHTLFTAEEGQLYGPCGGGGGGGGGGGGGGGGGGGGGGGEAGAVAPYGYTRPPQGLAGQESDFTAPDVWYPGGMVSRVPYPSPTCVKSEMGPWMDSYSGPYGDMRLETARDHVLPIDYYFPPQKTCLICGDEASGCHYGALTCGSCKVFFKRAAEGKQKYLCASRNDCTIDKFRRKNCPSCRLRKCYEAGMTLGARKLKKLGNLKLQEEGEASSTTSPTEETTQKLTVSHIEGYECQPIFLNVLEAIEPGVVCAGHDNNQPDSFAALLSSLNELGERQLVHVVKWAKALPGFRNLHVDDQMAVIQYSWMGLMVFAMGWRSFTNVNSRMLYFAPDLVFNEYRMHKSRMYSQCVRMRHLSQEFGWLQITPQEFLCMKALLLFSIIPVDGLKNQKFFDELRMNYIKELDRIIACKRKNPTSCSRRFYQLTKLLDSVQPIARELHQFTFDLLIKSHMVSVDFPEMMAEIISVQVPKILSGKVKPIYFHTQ
Method in brief: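 Antagonist-mode qHTS: inhibition of R1881 (10 nM)-driven beta-lactamase expression in GripTite HEK 293 cells is measured after 16 h; values are Hill-derived IC50s normalized between R1881 and DMSO wells.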

[6] = target: Bile acid receptor (Homo sapiens) (UniProt Q96RI1); assay: qHTS assay for small molecule antagonists of farnesoid X receptor signaling (AID 588526; calls by dose curve; note: potency is the fitted concentration of half-maximal effect; for activity change, negative = inhibition: % is set by controls: 0 for no effect and ±100 for the full control effect); conditions: HEK293T FXR-UAS-bla, beta-lactamase ratio, antagonist mode; activity change, negative = inhibition: at 76.7 µM (top of the series)
Method in brief: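 Concentration-response titrations were fitted to the Hill equation for half-maximal inhibition and maximal response, with data normalised to 50 uM chenodeoxycholic acid and DMSO control wells. Cells: FXR-UAS-bla HEK293T, dialyzed FBS.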

[7] = target: Peroxisome proliferator-activated receptor gamma (Homo sapiens) (UniProt P37231); assay: qHTS assay for small molecule agonists of peroxisome proliferator-activated receptor gamma signaling (AID 588536; active = well fitted curve in the direction sought with a large enough effect in the signal ratio, with a control signal flat, not every such curve was filed as active; inconclusive = small, poorly fitted or top-dose-only effect, or effect the other way, or a change in a side signal; inactive = no such curve, though single readings can be large or run the other way; the % refers to the signal ratio;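 note: 0% = DMSO basal wells and 100% = rosiglitazone at 2 µM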); conditions: HEK293 PPARg-UAS-bla, beta-lactamase ratio, 16 h; activation: at 76.7 µM (top of the series), percent of rosiglitazone response, DMSO as zero
Method in brief: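 HEK293 UAS-bla reporter line, 1% charcoal/dextran FBS; titration, 16 h, 37 C; CCF4 loading 2 h RT; fluorescence 460/530 nm. Normalized to rosiglitazone 2 uM = 100%, DMSO = 0%.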

[8] = target: Peroxisome proliferator-activated receptor gamma (Homo sapiens) (UniProt P37231); assay: qHTS assay for small molecule antagonists of peroxisome proliferator-activated receptor gamma signaling (AID 588537; active = well fitted inhibition curve with a large enough effect in the signal ratio, with a control signal flat, not every such curve was filed as active; inconclusive = small, poorly fitted or top-dose-only effect, or effect the other way, or a change in a side signal; the % refers to the signal ratio; note: potency is the fitted concentration of half-maximal effect;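 note: reporter cells co-stimulated with 50 nM rosiglitazone agonist during compound treatment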; for activity, negative = inhibition: % of control where 0% means no effect); conditions: HEK293 PPARg-UAS-bla, beta-lactamase ratio, antagonist mode; activity, negative = inhibition: at 76.8 µM (top of the series)
Method in brief: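 We seeded GeneBLAzer HEK293 reporter cells at 3000 per well, allowed 6-6.5 h attachment at 37 C, then co-treated with test compound titrations and 50 nM rosiglitazone overnight (16 h). Inhibition was quantified from 460/530 nm emission ratios.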

[9] = target: Retinoic acid receptor RXR-alpha (Homo sapiens) (UniProt P19793); assay: qHTS assay for small molecule agonists of retinoid X receptor alpha signaling (AID 588544; calls by dose curve;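 note: 0% = DMSO basal wells and 100% = reference agonist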); conditions: HEK293T RXRa-UAS-bla, beta-lactamase reporter, 18 h; activation: at 76.7 µM (top of the series) unless noted
Chain of UniProt P19793 (P19793 whole entry, looked up): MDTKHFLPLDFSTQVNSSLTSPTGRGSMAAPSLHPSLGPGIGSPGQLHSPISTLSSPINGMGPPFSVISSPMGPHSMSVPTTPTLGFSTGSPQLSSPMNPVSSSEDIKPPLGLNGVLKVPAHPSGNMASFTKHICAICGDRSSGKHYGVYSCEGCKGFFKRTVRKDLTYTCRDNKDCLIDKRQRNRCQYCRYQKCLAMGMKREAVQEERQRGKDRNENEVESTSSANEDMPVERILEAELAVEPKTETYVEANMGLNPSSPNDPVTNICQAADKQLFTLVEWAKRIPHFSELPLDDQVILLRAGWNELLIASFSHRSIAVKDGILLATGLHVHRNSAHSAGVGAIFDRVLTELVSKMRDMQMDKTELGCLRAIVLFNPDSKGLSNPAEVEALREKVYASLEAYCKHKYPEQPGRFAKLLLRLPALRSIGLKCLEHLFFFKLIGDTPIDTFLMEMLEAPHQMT

[10] = qHTS assay to identify small molecules that stimulate interleukin-8 (IL-8) secretion (AID 651758; active = well fitted activation curve with a large enough effect in the signal ratio; inconclusive = small, poorly fitted or top-dose-only effect, or effect the other way, or a change in a side signal; the % refers to the signal ratio; note: 0% is about no effect); conditions: HTRF ratio (665/615)
Method in brief: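 THP-1, 2000 cells/well; cpd 16 h, 37 C; add cryptate + XL665 anti-IL-8 Abs; RT 1-3 h; TR-FRET read.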

[11] = target: Nuclear receptor ROR-gamma (Homo sapiens) (UniProt P51449); assay: qHTS assay for small molecule antagonists of the retinoid-related orphan receptor gamma (ROR-gamma) signaling pathway (AID 651802); conditions: ROR-gamma antagonist cell reporter assay; series mostly up to 92.2 µM; note: potency is the fitted concentration of half-maximal effect; nearly all actives have a fitted effect of over 60% in size
Chain of UniProt P51449 (P51449 whole entry, looked up): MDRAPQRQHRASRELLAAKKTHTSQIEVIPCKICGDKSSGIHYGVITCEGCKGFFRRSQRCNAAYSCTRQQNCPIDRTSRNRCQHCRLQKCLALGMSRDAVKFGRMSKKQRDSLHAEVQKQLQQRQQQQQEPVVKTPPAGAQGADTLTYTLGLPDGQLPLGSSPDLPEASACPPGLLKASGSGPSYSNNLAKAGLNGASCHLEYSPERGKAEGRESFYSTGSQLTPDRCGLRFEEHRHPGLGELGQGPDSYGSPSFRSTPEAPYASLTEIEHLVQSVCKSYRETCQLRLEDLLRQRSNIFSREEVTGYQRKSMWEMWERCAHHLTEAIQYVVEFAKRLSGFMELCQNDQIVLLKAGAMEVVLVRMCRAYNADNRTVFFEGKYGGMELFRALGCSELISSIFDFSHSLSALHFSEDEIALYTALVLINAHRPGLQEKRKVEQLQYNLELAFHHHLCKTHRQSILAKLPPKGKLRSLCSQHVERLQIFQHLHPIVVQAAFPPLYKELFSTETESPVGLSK
Method in brief: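 CHO cells with TET-inducible ROR-gamma and RORE-luciferase reporter, dosed then doxycycline-induced. After 16 h at 37C, One-Glo luminescence read; decreased signal indicates antagonism.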

[12] = qHTS assay for small molecule antagonists of the retinoid-related orphan receptor gamma (ROR-gamma) signaling pathway - cell viability counter screen (AID 720652; active = well fitted curve in the direction sought with a large enough effect in the repeat runs; inconclusive = weak or mixed curves; inactive = no such curve, though single readings can be large; an effect the other way counts as inactive or inconclusive;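 note: potency is the fitted concentration of half-maximal effect; compound exposure lasted 16 hr before ATP read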); conditions: RORgamma reporter cell line viability counter screen; series mostly up to 92.2 µM
Method in brief: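 CHO cells carrying TET-inducible ROR and RORE-luciferase reporter, plated 5 hr, then dosed with compound plus doxycycline. After 16 hr at 37 C, viability read as intracellular ATP by CellTiter-Glo luminescence.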

[13] = Cell Viability - HUV-EC-C (AID 542); conditions: HUV-EC-C endothelial cell viability, qHTS; series mostly up to 92.2 µM; note: % is set by controls: 0 for no effect and ±100 for the full control effect; nearly all actives have a fitted effect of over 35% in size
Method in brief: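 HUV-EC-C human vascular endothelial cells, 1000/well, exposed to compound for 40 hr at 37 °C in complete medium. Intracellular ATP was read by CellTiter-Glo luminescence. AC50 came from Hill-equation fits of concentration-response data.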

[14] = Cell Viability - LYMP2-005 (AID 967); conditions: LYMP2-005 lymphoblastoid cell viability; series mostly up to 92.2 µM; note: potency is the fitted concentration of half-maximal effect
Method in brief: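 Human lymphoblastoid LYMP2-005 cells, 2,500 per well in complete medium, rested 5 h at 37C then compound-treated 24 h at 37C. Intracellular ATP read by CellTiter-Glo luminescence after 30 min at room temperature; AC50 from Hill-equation fits of concentration-response data.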

[15] = Cell Viability - LYMP2-024 (AID 988); conditions: LYMP2-024 lymphoblastoid cell viability; activity change, negative = cytotoxicity: at 92.2 µM (top of the series);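 note: plate controls were DMSO only for no effect and 92 µM tetraoctylammonium bromide for full effect; nearly all actives have a fitted effect of over 60% in size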
Method in brief: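 Human lymphoblastoid LYMP2-024 cells (2500/well) rested 5 hr, then treated with compound for 24 hr at 37 C in complete medium. Viability was measured as intracellular ATP by CellTiter-Glo luminescence. AC50 values came from Hill-equation fits.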

[16] = Cell Viability - LYMP1-002 - Assay at 24 hr (AID 993); conditions: LYMP1-002 lymphoblastoid cells viability; series mostly up to 92.2 µM; note: potency is the fitted concentration of half-maximal effect
Method in brief: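 Human lymphoblastoid LYMP1-002 cells (2500/well) treated 24 h at 37 °C; viability as intracellular ATP by CellTiter-Glo luminescence. Tetraoctylammonium bromide as positive control; AC50 from Hill-equation fits of qHTS concentration-response.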

[17] = target: Peroxisome proliferator-activated receptor delta (Homo sapiens) (UniProt Q03181); assay: qHTS assay for small molecule antagonists of peroxisome proliferator-activated receptor delta signaling (AID 588535; active = well fitted inhibition curve with a large enough effect in the signal ratio, with a control signal flat, not every such curve was filed as active; inconclusive = small, poorly fitted or top-dose-only effect, or effect the other way, or a change in a side signal; inactive = no such curve, though single readings can be large or run the other way; the % refers to the signal ratio; note: potency is the fitted concentration of half-maximal effect); conditions: HEK293T PPARd-UAS-bla, beta-lactamase FRET ratio, 18 h; activity change, negative = inhibition: at 76.7 µM (top of the series)
Chain of UniProt Q03181 (Q03181 whole entry, looked up): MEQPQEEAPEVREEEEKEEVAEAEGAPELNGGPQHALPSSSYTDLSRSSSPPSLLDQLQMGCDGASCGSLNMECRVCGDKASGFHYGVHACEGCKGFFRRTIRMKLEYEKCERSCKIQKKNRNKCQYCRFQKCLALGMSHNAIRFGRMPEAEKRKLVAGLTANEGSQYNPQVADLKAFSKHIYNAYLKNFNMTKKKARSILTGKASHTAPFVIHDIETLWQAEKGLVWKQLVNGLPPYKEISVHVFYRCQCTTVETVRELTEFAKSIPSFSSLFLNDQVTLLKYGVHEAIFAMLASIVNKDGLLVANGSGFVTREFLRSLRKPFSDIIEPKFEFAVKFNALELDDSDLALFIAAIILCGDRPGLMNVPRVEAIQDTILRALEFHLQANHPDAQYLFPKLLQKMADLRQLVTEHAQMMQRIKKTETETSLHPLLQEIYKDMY
Method in brief: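 Reporter: UAS-bla under PPAR-delta response element, HEK293T host. Medium: 2% charcoal/dextran FBS. Dosing: titration, 18 hrs, 37 C. Detection: CCF4, 2 hrs RT, 405 ex/460 and 530 em.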

[18] = target: Retinoic acid receptor RXR-alpha (Homo sapiens) (UniProt P19793); assay: qHTS assay for small molecule antagonists of retinoid X receptor alpha signaling (AID 588546; active = well fitted inhibition curve with a large enough effect in the signal ratio, with a control signal flat, not every such curve was filed as active; inconclusive = small, poorly fitted or top-dose-only effect, or effect the other way, or a change in a side signal; inactive = no such curve, though single readings can be large or run the other way; the % refers to the signal ratio;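 note: cells stimulated with 9-cis-retinoic acid as agonist; % is set by controls: 0 for no effect and ±100 for the full control effect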); conditions: HEK293T RXRa-UAS-bla, beta-lactamase ratio, antagonist mode
Method in brief: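 Beta-lactamase reporter inhibition, read as CCF4 fluorescence ratio (ex 405, em 460/530 nm) after 2 h at RT. HEK293T UAS-bla cells, 2500/well, were stimulated with 9-cis-RA at 500 or 100 nM final alongside test compound for 18 h at 37 C.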

[19] = target: Voltage-gated inwardly rectifying potassium channel KCNH2 (Homo sapiens) (UniProt Q12809); assay: qHTS Assay for Small Molecule Inhibitors of the Human hERG Channel Activity (AID 588834); conditions: U2OS BacMam hERG, FluxOR thallium flux fluorescence; series mostly up to 92.2 µM;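 note: top concentration of the series differs between compounds; % is set by controls: 0 for no effect and ±100 for the full control effect; lower thallium flux fluorescence means stronger hERG block; nearly all actives have a fitted effect of over 50% in size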
Chain of UniProt Q12809 (Q12809 whole entry, looked up): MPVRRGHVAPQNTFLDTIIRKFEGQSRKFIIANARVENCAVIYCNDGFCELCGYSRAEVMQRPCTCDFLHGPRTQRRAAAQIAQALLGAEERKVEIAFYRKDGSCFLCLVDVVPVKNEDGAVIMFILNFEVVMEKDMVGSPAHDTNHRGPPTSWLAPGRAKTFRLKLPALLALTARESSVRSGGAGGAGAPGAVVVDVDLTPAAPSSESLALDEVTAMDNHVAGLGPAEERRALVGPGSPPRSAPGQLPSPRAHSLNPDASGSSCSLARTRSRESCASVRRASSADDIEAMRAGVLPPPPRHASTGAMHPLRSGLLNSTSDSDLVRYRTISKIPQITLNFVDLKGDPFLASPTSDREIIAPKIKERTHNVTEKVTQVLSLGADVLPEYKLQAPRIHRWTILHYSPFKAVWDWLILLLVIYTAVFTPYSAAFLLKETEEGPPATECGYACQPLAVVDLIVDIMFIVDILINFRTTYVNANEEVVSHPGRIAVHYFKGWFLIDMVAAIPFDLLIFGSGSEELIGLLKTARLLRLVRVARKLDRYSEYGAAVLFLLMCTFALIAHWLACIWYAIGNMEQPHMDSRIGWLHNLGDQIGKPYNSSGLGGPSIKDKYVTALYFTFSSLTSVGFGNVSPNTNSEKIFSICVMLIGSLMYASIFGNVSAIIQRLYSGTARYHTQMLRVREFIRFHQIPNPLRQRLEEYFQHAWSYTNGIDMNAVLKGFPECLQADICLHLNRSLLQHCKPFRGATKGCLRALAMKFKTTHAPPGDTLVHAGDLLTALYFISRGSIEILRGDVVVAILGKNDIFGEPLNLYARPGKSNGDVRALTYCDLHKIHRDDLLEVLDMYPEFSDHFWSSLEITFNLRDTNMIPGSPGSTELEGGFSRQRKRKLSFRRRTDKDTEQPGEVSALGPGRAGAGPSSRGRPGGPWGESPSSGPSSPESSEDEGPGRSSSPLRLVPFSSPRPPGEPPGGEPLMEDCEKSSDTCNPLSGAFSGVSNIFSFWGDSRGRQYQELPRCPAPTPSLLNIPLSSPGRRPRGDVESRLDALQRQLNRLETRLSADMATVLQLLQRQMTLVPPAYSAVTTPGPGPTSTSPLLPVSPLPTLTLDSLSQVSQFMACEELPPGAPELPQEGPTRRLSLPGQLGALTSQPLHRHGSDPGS
Method in brief: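 U2OS cells BacMam-transduced with hERG, 2000 cells/well, compound ~10 min at 37 °C before stimulation buffer. FluxOR thallium flux fluorescence read kinetically on FDSS; decrease indicates block; AC50 from Hill fits.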

[20] = target: Peroxisome proliferator-activated receptor alpha (Homo sapiens) (UniProt Q07869); assay: qHTS assay for small molecule agonists of the peroxisome proliferator-activated receptor alpha (PPARalpha) signaling pathway (AID 651778); conditions: PathHunter PPARalpha complementation, chemiluminescence, 6 h; max response: active compounds read high; note: % of control where 0% means no effect
Chain of UniProt Q07869 (Q07869 whole entry, looked up): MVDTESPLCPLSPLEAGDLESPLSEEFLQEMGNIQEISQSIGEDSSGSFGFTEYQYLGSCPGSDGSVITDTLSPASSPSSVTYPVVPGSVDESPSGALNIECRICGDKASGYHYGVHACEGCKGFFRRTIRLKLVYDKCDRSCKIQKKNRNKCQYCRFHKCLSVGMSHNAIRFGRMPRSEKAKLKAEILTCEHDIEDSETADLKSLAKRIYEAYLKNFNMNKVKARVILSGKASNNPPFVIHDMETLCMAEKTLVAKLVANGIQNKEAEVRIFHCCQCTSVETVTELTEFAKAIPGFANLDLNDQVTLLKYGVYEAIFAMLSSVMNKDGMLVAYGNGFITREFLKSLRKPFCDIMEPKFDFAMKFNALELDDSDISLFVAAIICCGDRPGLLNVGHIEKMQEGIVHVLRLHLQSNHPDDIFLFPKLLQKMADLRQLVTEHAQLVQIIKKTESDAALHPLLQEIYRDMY
Method in brief: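 Cells plated at 2,000/well and held overnight at 37 C, 5% CO2, then compound added by pin tool for 6 hr; after PathHunter detection reagent and 60 min at room temperature, chemiluminescence from enzyme complementation was read.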

[21] = activation: at 92.2 µM (top of the series)
Tags give direction and shape of the fitted curve or compound fluorescence and quenching.

In the case of CCc1ccc(C(c2ccc(CC)cc2)C(Cl)Cl)cc1, the Potency [1] is reported as inactive: > 92 µM, the Potency [2] is reported as inconclusive [activator, partial curve] and the activity change, negative = cytotoxicity [3] is reported as inconclusive: -66.4%. For the same compound, the Potency [4] was “inactive”, the activity change, negative = inhibition [5] was inconclusive: -60.2% and the Potency [6] was inconclusive [side channel, rising, partial curve, poor fit]. For the same compound, the activation [7] was inconclusive: -11.1%, the activity, negative = inhibition [8] was inconclusive: -20.1% and the activation [9] was inconclusive: -13.8%. The activation [10, 21] was inconclusive: 4.95%, the Potency [11] was inconclusive [inhibitor, partial curve, poor fit] and the Potency [12] was inconclusive [cytotoxic, partial curve].
For O=C(O)c1ccc(O)cc1O, the Potency [1] was inactive: > 92 µM, the Potency [13] was “inactive” and the Potency [14] was inconclusive [cytotoxic, full curve, poor fit]. For the same compound, the Potency [15] was “inactive”, the Potency [16] was inconclusive [cytotoxic, single point] and the activity change, negative = inhibition [6] was inconclusive: 1.05%. For the same compound, the Potency [17] was inconclusive [inhibitor, full curve, poor fit], the Potency [8] was inconclusive [activator, single point] and the max response [18] was inconclusive: -1.2%. For the same compound, the Potency [19] was “inactive”, the activation ([10]; at 92.2 µM (top of the series)) was inactive: 4.99% and the activation [10, 21] was inconclusive: -15.2%. The max response [20] was inactive: -2.85% and inactive: -4.3%.
